Measurements: the supplement of paper PMC3334620
Whole data set: some 33,000 sequences, median “E-score (-0.5 to 0.5)” near -0.017, cut for the highest 2% near 0.3. This is one part of the list.

The sequences below were run against T1, Sut1 (UniProt P53032) (assay: PBM E-score (8-mer binding enrichment) (E-score (-0.5 to 0.5)); higher = stronger / more preferred TF binding; most listed sequences are background and not binding sites). Conditions: protein concentration: 200 nM; construct: GST-full length.
T1 sequence: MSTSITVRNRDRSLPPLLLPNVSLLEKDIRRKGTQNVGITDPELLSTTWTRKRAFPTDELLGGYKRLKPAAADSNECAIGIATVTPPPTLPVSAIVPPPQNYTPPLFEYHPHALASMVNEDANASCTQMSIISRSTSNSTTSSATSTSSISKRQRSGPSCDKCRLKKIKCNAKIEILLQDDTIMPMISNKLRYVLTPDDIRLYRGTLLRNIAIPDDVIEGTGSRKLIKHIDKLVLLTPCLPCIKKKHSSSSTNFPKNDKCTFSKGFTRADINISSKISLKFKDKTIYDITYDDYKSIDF
Procedure: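 Universal 'all 10-mer' protein binding microarrays (Agilent AMADID 015681) probed with GST-tagged S. cerevisiae TFs (full-length or DBD) made by in vitro transcription/translation (PURExpress), about 100-200 nM. Bound TF was detected with fluorescent anti-GST. Each ungapped 8-mer (which stands for itself and its reverse complement) is scored by the PBM enrichment score (E-score), a modified Wilcoxon-Mann-Whitney statistic from -0.5 to +0.5, computed with the Universal PBM Analysis Suite. Scale: above 0.35 generally sequence-specific binding.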
GCTAAGAA was tested, and the “PBM E-score” value was 0.014. GTTGTTAA was tested, and the “PBM E-score” value was 0.197. GCTATAAA was tested, and the “PBM E-score” value was 0.194. CTTAGCAC was tested, and the “PBM E-score” value was 0.0684. With GACGAAAA the “PBM E-score” value was 0.247. CTTAGCCC was tested, and the “PBM E-score” value was -0.129. AGGATCTG was tested, and the “PBM E-score” value was -0.275. For AGCCGGCT, the “PBM E-score” value was 0.0069. With ACTGCTAC the “PBM E-score” value was -0.0513. AGTTAGTA was tested, and the “PBM E-score” value was 0.0892. In the case of AGCATCGG, the “PBM E-score” value is reported as 0.0931. In the case of CGTTAGCA, the “PBM E-score” value is reported as 0.0473. In the case of GGTTTCCA, the “PBM E-score” value is reported as -0.112. AATCACCA was tested, and the “PBM E-score” value was 0.0859. In the case of AACTAAAT, the “PBM E-score” value is reported as 0.101. In the case of ACAGGCCC, the “PBM E-score” value is reported as -0.315. For CCACTTTC, the “PBM E-score” value was 0.108. CAGGGACG was tested, and the “PBM E-score” value was -0.165. For CGAATGGC, the “PBM E-score” value was -0.11. For TCGGCCAA, the “PBM E-score” value was -0.199. For TCGTGCCA, the “PBM E-score” value was -0.222. For TAGCTCCA, the “PBM E-score” value was -0.0882. In the case of CGAACCGA, the “PBM E-score” value is reported as 0.0613. With AGTGGCGG the “PBM E-score” value was 0.0532. GGCCACGA was tested, and the “PBM E-score” value was -0.0754. CCCACTGC was tested, and the “PBM E-score” value was -0.36. With CAGCCCAA the “PBM E-score” value was -0.153. With TACCAAAA the “PBM E-score” value was -0.0637. For CATTCTTC, the “PBM E-score” value was 0.131. For GTAACGAC, the “PBM E-score” value was 0.0279. With ATGGGCTG the “PBM E-score” value was -0.258. In the case of AGATACGA, the “PBM E-score” value is reported as 0.252. CACTAGCA was tested, and the “PBM E-score” value was -0.245. For AGAAAAAC, the “PBM E-score” value was 0.251. For TCGTCACA, the “PBM E-score” value was -0.132. In the case of CTCTTAGA, the “PBM E-score” value is reported as 0.112. ATTACGAG was tested, and the “PBM E-score” value was 0.104. In the case of CCGGTCCC, the “PBM E-score” value is reported as 0.0189. In the case of AGCGTGGG, the “PBM E-score” value is reported as -0.232. In the case of AGATTATG, the “PBM E-score” value is reported as 0.192. AATTAGCC was tested, and the “PBM E-score” value was 0.0258. For CACATGCG, the “PBM E-score” value was -0.177. In the case of CCATCCCC, the “PBM E-score” value is reported as -0.152. In the case of ACATCATA, the “PBM E-score” value is reported as 0.249. With CTTTACTA the “PBM E-score” value was 0.21. With CCGTGAAA the “PBM E-score” value was 0.232. In the case of CGGGATCC, the “PBM E-score” value is reported as 0.00502. With ACGGTTTG the “PBM E-score” value was -0.00598. With GCCCCTGA the “PBM E-score” value was -0.359. For AACTTGCA, the “PBM E-score” value was -0.19. With CAATGGAA the “PBM E-score” value was 0.066. ATAAATAA was tested, and the “PBM E-score” value was 0.321. With GTGAGCCA the “PBM E-score” value was -0.139. With ATAAGTAA the “PBM E-score” value was 0.25. In the case of CCTCTTCA, the “PBM E-score” value is reported as -0.184. For GTACCTCA, the “PBM E-score” value was -0.0469. In the case of CTAGGCAC, the “PBM E-score” value is reported as -0.263. CTCGCGAA was tested, and the “PBM E-score” value was -0.0779. In the case of AAAGGAAG, the “PBM E-score” value is reported as 0.146. For GCCTGATA, the “PBM E-score” value was -0.217. In the case of AGCATCAT, the “PBM E-score” value is reported as 0.0711. In the case of ACATACCG, the “PBM E-score” value is reported as -0.0376. AACTCGCT was tested, and the “PBM E-score” value was 0.0435. In the case of CAAATTTC, the “PBM E-score” value is reported as 0.163. For TACGATAA, the “PBM E-score” value was 0.23. In the case of AGCTCGCA, the “PBM E-score” value is reported as -0.0891. For GACCACTC, the “PBM E-score” value was 0.00269. For GAGAGCCC, the “PBM E-score” value was -0.378. ACAGTCTG was tested, and the “PBM E-score” value was -0.187. GAGCCAGA was tested, and the “PBM E-score” value was -0.115. CGGATAGC was tested, and the “PBM E-score” value was 0.0587. In the case of TCGCCCGA, the “PBM E-score” value is reported as -0.135. In the case of GATTTGAA, the “PBM E-score” value is reported as 0.142. With CCGTCAAA the “PBM E-score” value was -0.0438. ACATCGAT was tested, and the “PBM E-score” value was 0.00932. With ATTAGAGC the “PBM E-score” value was 0.123. With TACTCAGA the “PBM E-score” value was 0.0597. For ACTAAGGA, the “PBM E-score” value was -0.00143. For GTGGAGGA, the “PBM E-score” value was -0.0728. For CTGACTGC, the “PBM E-score” value was -0.116. For GGAAATTA, the “PBM E-score” value was 0.286. AGCTGGTA was tested, and the “PBM E-score” value was -0.169. For CTCAGTCA, the “PBM E-score” value was -0.164. For GACACGCC, the “PBM E-score” value was -0.123. In the case of AACTCACG, the “PBM E-score” value is reported as -0.17. TAGTGAGA was tested, and the “PBM E-score” value was 0.137. With AGTGGTCG the “PBM E-score” value was -0.114. With TAGTTCAA the “PBM E-score” value was 0.0939. CCTATACG was tested, and the “PBM E-score” value was -0.0397. GGAGTCCC was tested, and the “PBM E-score” value was 0.155. For ATCTAACA, the “PBM E-score” value was 0.141. For ATGGAGCG, the “PBM E-score” value was -0.162. AAAAAATG was tested, and the “PBM E-score” value was 0.241. GTTATAGA was tested, and the “PBM E-score” value was 0.126. GGGAAGGA was tested, and the “PBM E-score” value was -0.207. With CGGCGGTA the “PBM E-score” value was 0.14. For CCAACGGC, the “PBM E-score” value was -0.126. With GCGGCTGA the “PBM E-score” value was -0.258. With TCCGCAAA the “PBM E-score” value was 0.258. For CGGATTAG, the “PBM E-score” value was 0.0268. In the case of AAGATCTA, the “PBM E-score” value is reported as -0.0686. For AACGTCCA, the “PBM E-score” value was -0.064. For CCCTATAC, the “PBM E-score” value was -0.133. In the case of CCCGGTGC, the “PBM E-score” value is reported as -0.224. With CGGAAGCA the “PBM E-score” value was 0.228. For ATCGGACA, the “PBM E-score” value was 0.257. ACCCCAAG was tested, and the “PBM E-score” value was -0.159. For ATTGGCGG, the “PBM E-score” value was -0.0124. GACCTTAC was tested, and the “PBM E-score” value was -0.00752. CGTGAATA was tested, and the “PBM E-score” value was 0.176. With AAGTACCC the “PBM E-score” value was -0.0435. With CATATATC the “PBM E-score” value was -0.0165. CCTGTTAG was tested, and the “PBM E-score” value was -0.0146. For ACTCGTAA, the “PBM E-score” value was 0.114. In the case of ATCTGGCG, the “PBM E-score” value is reported as -0.0659. In the case of CCAACAGC, the “PBM E-score” value is reported as -0.0867. For GAGGCGGA, the “PBM E-score” value was 0.0432. For CCAGACAG, the “PBM E-score” value was -0.0646. For TGGTGACA, the “PBM E-score” value was -0.118. ATCGCGAT was tested, and the “PBM E-score” value was 0.13. In the case of AGGTGTAA, the “PBM E-score” value is reported as 0.11. CGCTGGTC was tested, and the “PBM E-score” value was -0.329. ATCTCTGG was tested, and the “PBM E-score” value was -0.195. GATCCTAC was tested, and the “PBM E-score” value was -0.0447. CAAAGTGC was tested, and the “PBM E-score” value was 0.0175. With ACTCCCCT the “PBM E-score” value was -0.103. CGCCACAA was tested, and the “PBM E-score” value was -0.0776. For TCGCCACA, the “PBM E-score” value was -0.2. CGTGATTC was tested, and the “PBM E-score” value was -0.103. With ACGGGGGC the “PBM E-score” value was -0.294. CCTTTGAA was tested, and the “PBM E-score” value was -0.0516. With CATAGTAA the “PBM E-score” value was 0.136. With CTGTGGCA the “PBM E-score” value was -0.228. In the case of TAGATCCA, the “PBM E-score” value is reported as -0.00709. With GGGGCCGA the “PBM E-score” value was -0.343. ACTATCAC was tested, and the “PBM E-score” value was 0.114. In the case of AAGGTACT, the “PBM E-score” value is reported as 0.0546. For ATGGCCTC, the “PBM E-score” value was -0.123. For AACCGAGC, the “PBM E-score” value was 0.146. With AGTGCAAG the “PBM E-score” value was 0.0115. For AGCGAGTC, the “PBM E-score” value was -0.0124. In the case of CACAATTC, the “PBM E-score” value is reported as 0.139. In the case of GAGCGCCC, the “PBM E-score” value is reported as -0.246. For TACATAAA, the “PBM E-score” value was 0.211. In the case of ACAACGCC, the “PBM E-score” value is reported as 0.0884. With TCAATAGA the “PBM E-score” value was 0.137. In the case of CGGCCGAG, the “PBM E-score” value is reported as -0.0772. In the case of CCCCAAGC, the “PBM E-score” value is reported as -0.0954. With GAGAATGC the “PBM E-score” value was 0.0169. In the case of CCTAGGGA, the “PBM E-score” value is reported as -0.0185. With GTGCGATA the “PBM E-score” value was -0.00475. With GAGTGTGC the “PBM E-score” value was 0.141. ATGACTGC was tested, and the “PBM E-score” value was 0.00267. For TCCTCCAA, the “PBM E-score” value was -0.023. In the case of CTGAACTC, the “PBM E-score” value is reported as -0.0264. For GCGTGAAA, the “PBM E-score” value was 0.0003. In the case of ACTCCAAT, the “PBM E-score” value is reported as 0.0796. In the case of ATGACTTG, the “PBM E-score” value is reported as -0.00572. For ACTATGTA, the “PBM E-score” value was -0.0435. For AATACCCG, the “PBM E-score” value was -0.14. For ATCTTCGA, the “PBM E-score” value was 0.00133. CTGGCAAA was tested, and the “PBM E-score” value was 0.0918. For GCCCACGA, the “PBM E-score” value was -0.199. GAGTAAAA was tested, and the “PBM E-score” value was 0.141. ACTAAATG was tested, and the “PBM E-score” value was 0.0164. For GCGTGCAA, the “PBM E-score” value was -0.225. With CAGGAAGC the “PBM E-score” value was -0.0659. With AGATGTCC the “PBM E-score” value was 0.196. For AAGCTGGG, the “PBM E-score” value was -0.21. AGTGCCAC was tested, and the “PBM E-score” value was -0.182. With AAAACCGG the “PBM E-score” value was 0.185. For CTCCATAA, the “PBM E-score” value was 0.07.
